Drawing on publication PMC12136788, this text covers binding signal for 22 molecules.

The chains are these.
T1: UNK ZnF1-6 (called full-length) (human, UniProt Q9C0B0 30-357)
T1 sequence: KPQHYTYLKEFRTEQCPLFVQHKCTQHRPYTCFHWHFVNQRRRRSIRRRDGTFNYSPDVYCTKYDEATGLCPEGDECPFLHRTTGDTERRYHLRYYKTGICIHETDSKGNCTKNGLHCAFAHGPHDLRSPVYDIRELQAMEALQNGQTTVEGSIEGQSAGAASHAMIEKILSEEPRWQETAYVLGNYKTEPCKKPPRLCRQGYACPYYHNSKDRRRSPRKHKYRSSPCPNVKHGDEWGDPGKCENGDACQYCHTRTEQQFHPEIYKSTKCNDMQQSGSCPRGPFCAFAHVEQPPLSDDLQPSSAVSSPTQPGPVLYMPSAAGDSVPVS

B1: ENSG00000124766:be:win_3951|3pUTR|ENSG00000124766|bound_else_gene|NA|bound_elsewhere_windowed (ssRNA)
RNA: GGGAGUUCUACAGUCCGACGAUCGUUUGGGGGAAAAAAAAGAAAAAAUCAUGCCAGCUAAUCAUGUCAAGUUCACUGCCUGUCAGAUUGUUGAUAUAUACCUUCUGUAAAUAACUUUUUUUGAGAAGGAAAUAAAAUCAGCUGCAACAGAGGAUUGAGCAUCA
B2: ENSG00000198589:be:win_1|CDS|ENSG00000198589|bound_else_gene|NA|bound_elsewhere_windowed (ssRNA)
RNA: GGGAGUUCUACAGUCCGACGAUCAUGGCUAGCGAAGACAAUCGUGUCCCUUCCCCGCCACCAACAGGUGAUGACGGGGGAGGUGGAGGGAGAGAAGAAACCCCUACUGAAGGGGGUGCAUUGUCUCUGAAACCAGGGCUCCCCCAACAGAGGAUUGAGCAUCA
B3: chr1:200665936:200666740:-|CDS|ENSG00000118197|control|control|control (ssRNA)
RNA: GGGAGUUCUACAGUCCGACGAUCCUGGGAAUUUUAGUUCAAGGGCAAGAAGUCACCAGGCCCAUUAUUGACUUUGAACAUUGUAGUCUCCCUGAGGUCUUAAAUCACAACUUGAAGAAAUCAGGCUAUGAGGUGCCAACUCCCCAACAGAGGAUUGAGCAUCA
B4: chr15:59031169:59031386:+|CDS|ENSG00000157450|unk|total|mutant (ssRNA)
RNA: GGGAGUUCUACAGUCCGACGAUCACACCAAGUGAUGAAGAUAAUGAUUCCUCUUUCCGUGAUUGUCUUUCUUCUCCUUCAUCCCGUCUGCAUUUUGGAGAUUCUGAUACUGUGACUUCAGAUGAGGAUAAAGAAGUCUCUGUACAACAGAGGAUUGAGCAUCA
B5: chr2:73761781:73762859:-|three_prime_utr|ENSG00000144048|control|control|control (ssRNA)
RNA: GGGAGUUCUACAGUCCGACGAUCUAUUCACACAGGAGGUAUUCUUGGAAUGUGAAGCCCAAUGCCAGUCGGGCAGCCCAGGAUAGAAGAAGGUGGUAUCCUUAUAAUUACUCCAGACUCUCCUAUCCAGCCUGUUGGGAAUGGCAACAGAGGAUUGAGCAUCA
B6: chr20:50584425:50584526:+|3pUTR|ENSG00000196396|msi1|total|mutant (ssRNA)
RNA: GGGAGUUCUACAGUCCGACGAUCACCUCCUAUCCUUGGAGAGCAGCUGGCUCUCCACCUUGUUACACAUUAUGUCCGAGAGGCCGCGAGCUGCUCUGCUAUAUGCCUUAAGCCAAUAUUUACUCAUCAGGUCAUUAUUUUUUACAACAGAGGAUUGAGCAUCA
B7: chr12:100625254:100625355:+|3pUTR|ENSG00000139354|unk|total|mutant (ssRNA)
RNA: GGGAGUUCUACAGUCCGACGAUCAUAUGUAUUAAAUAUGGAGUUCAUAUACCUGCUAAUAUCAACGGUGGUGCUCUUACUAUCCGUUAAUUGCAUUUUGGUUAAAAAAAAAAAAGCAACAGUUUGGCACUUGUCCUACAAAAGCAACAGAGGAUUGAGCAUCA
B8: chr9:96818597:96818698:-|CDS|ENSG00000196597|unk|FALSE|unique (ssRNA)
RNA: GGGAGUUCUACAGUCCGACGAUCGGAGAAACCAUUCGAAUGUCAUGAAUGUGGGAAAUCUUUUAACUAUAAGUCAAUCCUCAUAGUGCAUCAGAGAACUCACACAGGGGAGAAACCUUUUGAAUGUAAUGAAUGCGGGAAAUCCAACAGAGGAUUGAGCAUCA
B9: chr4:55870735:55870847:+|CDS|ENSG00000090989|unk|total|mutant (ssRNA)
RNA: GGGAGUUCUACAGUCCGACGAUCGGCAUCUGAAAAACAAGUCAACAUCCUGAUGAAAUUGCCCGAUGAGGCUCUAAAGGAGGCCGAUCAGAUUGAAUUGAAACUGAGCAGUUAUGAGGAAAUGCUCCAAAGUGUAAAAGAACACAACAGAGGAUUGAGCAUCA
B10: chr20:37404728:37404829:+|3pUTR|ENSG00000197122|msi1|total|mutant (ssRNA)
RNA: GGGAGUUCUACAGUCCGACGAUCGGCCUCUGCAACUGCUCAGCUCUGGUCCAGGCCCUGUGGCAGGACACACAUGGUGAGCCCCGCCCUGGGACAUCAGGAGACUGGGCUCUGGCUCUGUUCGGCCUUUGGGUGUGUGGUGGACAACAGAGGAUUGAGCAUCA
B11: chr6:134965076:134965177:-|3pUTR|ENSG00000112339|unk|total|mutant (ssRNA)
RNA: GGGAGUUCUACAGUCCGACGAUCAAAGGAACAAUGUGCAAUUGAUAUGUUUUCCGAUGAGAGAGAAAAAUUAAAGCUAAAAUCCGCUGCAAAGAAGUAUUAAUAAUCACCUCUGCAAAAAUUCUAAGUUGCCAACUGGCAAAGCAACAGAGGAUUGAGCAUCA
B12: ENSG00000107863:be:win_801|CDS|ENSG00000107863|bound_else_gene|NA|bound_elsewhere_windowed (ssRNA)
RNA: GGGAGUUCUACAGUCCGACGAUCCAAUGAAAGUGUAAGGACUGUCAUUGUGCCUUCUGAGAAGGUUGUAGAUUUGUUAUCCAAUAGAAACAACCAUACAGGUCCUUCACAUAGAACUGAAGAAGUGAGGUAUGGCGUGAGUGACAACAGAGGAUUGAGCAUCA
B13: ENSG00000198589:be:win_451|CDS|ENSG00000198589|bound_else_gene|NA|bound_elsewhere_windowed (ssRNA)
RNA: GGGAGUUCUACAGUCCGACGAUCCUUUUGGUUGACAUGUUGGGAGUGCUGGCUAGCUAUAAUUUGACAGUUCGCGAGCUAAAGCUUUUCUUCAGUAAACUUCAAGGAGAUAAAGGACGAUGGCCUCCACAUGCUGGGAAGUUGCAACAGAGGAUUGAGCAUCA
B14: chr3:179334266:179334377:+|CDS|ENSG00000121864|unk|FALSE|unique (ssRNA)
RNA: GGGAGUUCUACAGUCCGACGAUCUUAUUUAUGUCAAUAUUGUGAAUAUUCAACAGGACAAAUUGAAGAUCUUAAAAUUCAUCUAGAUUUCAAGCAUUCAGCUGACUUGCCUCAUAAAUGUAGUGACUGCUUGAUGAGGUUUGGCAACAGAGGAUUGAGCAUCA
B15: chr17:59694590:59694691:+|3pUTR|ENSG00000141367|msi1|FALSE|unique (ssRNA)
RNA: GGGAGUUCUACAGUCCGACGAUCCUUGUGUGUGUUUACUAACCCUUCCCUGAGGUUUGUGUAUGUUGGAUAUUGUGGUGUUUUAGAUCACUGAGUGUACAGAAGAGAGAAAUUCAAACAAAAUAUUGCUGUUCUUCAGUUUUGCAACAGAGGAUUGAGCAUCA
B16: ENSG00000096384:stop:overlap|stop_codon|ENSG00000096384|stop_codon|NA|stop_codon (ssRNA)
RNA: GGGAGUUCUACAGUCCGACGAUCCUGAUGAGAUCCCCCCUCUCGAGGGCGAUGAGGAUGCGUCUCGCAUGGAAGAAGUCGAUUAGGUUAGGAGUUCAUAGUUGGAAAACUUGUGCCCUUGUAUAGUGUCCCCAUGGGCUCCCACAACAGAGGAUUGAGCAUCA
B17: chr19:21059139:21059240:+|3pUTR|ENSG00000118620|unk|FALSE|unique (ssRNA)
RNA: GGGAGUUCUACAGUCCGACGAUCGUAAAAAUGAAAAUAUUUAAUCCAAAAUUAAGUCUAUGUAAAUAUCAGAGAAUUUACUGUAGAAAUAUAUAAGGCACUGAGACUUCAGAUAUUAUACUAAAUCAGAGUGCUGAGUAUAGACAACAGAGGAUUGAGCAUCA
B18: chr12:49323620:49323721:+|CDS|ENSG00000135451|unk|FALSE|unique (ssRNA)
RNA: GGGAGUUCUACAGUCCGACGAUCAUCAUGACCACCCGGCAAGCCACGAAGGAUCCCCUCCUCCGGGGUGUAUCUCCUACCCCUAGCAAGAUUCCGGUACGCUCUCAGAAACGCACGCCUUUCCCCACUGUUACAUCGUGCGCCCAACAGAGGAUUGAGCAUCA
B19: ENSG00000198589:be:win_2101|CDS|ENSG00000198589|bound_else_gene|NA|bound_elsewhere_windowed (ssRNA)
RNA: GGGAGUUCUACAGUCCGACGAUCGUUGCAUUAAUGUCAGAACACCCUAACUCUAUGAUUCCUGCUUUUGACCAAAGGAAUGGGUUACGUGUUAUCUACAAACUUCUGGCAUCGAAAAGUGAAGGAAUCAGGGUACAAGCUCUUCAACAGAGGAUUGAGCAUCA
B20: chr8:143915506:143915607:-|3pUTR|ENSG00000178209|msi1|total|mutant (ssRNA)
RNA: GGGAGUUCUACAGUCCGACGAUCCCCCACACUCACUCCUGAGACCCCUGGCCUCCGGCGUCAGCCUCCAGCCUCUGUUCCCCCCGUAAGUGCCUUCCAUGUCGGCCUCUAACCCCAGGCCCCGAGGACCCAGACCCAGUGGGGCAACAGAGGAUUGAGCAUCA
B21: chr1:46316673:46316776:+|3pUTR|ENSG00000173660|unk|total|mutant (ssRNA)
RNA: GGGAGUUCUACAGUCCGACGAUCUGUUUCUUAUUUGUGUAACUGUAAGUUCACAUGAACCUCAUGGGUUUGGCUCCGGCUGGCCGCUUCUAUGUAAUUCGCAAUGAUUCCAUCUAAAUAAAAGUUCUAUGAUCUGCAAACCUGCAACAGAGGAUUGAGCAUCA
B22: chr18:35366693:35369214:-|three_prime_utr|ENSG00000186496|control|control|control (ssRNA)
RNA: GGGAGUUCUACAGUCCGACGAUCCAAAGCAUUUACUCAGAGCUAUUUCAGCACAAGGGAAGACACCAGAUGCAAACGCUCCUUAGUACAAAUCAGUGGUCUUAGUAAGCACCAGUCUCCUUUCAAGACUCAUGAAAGCCACAGCAACAGAGGAUUGAGCAUCA

This is one part of the list.

In this experiment the target is T1, UNK ZnF1-6 (called full-length). Nature of the experiment: nsRBNS (natural sequence RNA bind-n-seq); RBNS binding buffer (assumed for nsRBNS): 25 mM Tris pH 7.5, 150 mM KCl, 3 mM MgCl2, 0.01% Triton X-100, 500 ug/ml BSA, 20 U/ml SUPERase-In, 4 C; UNK is unkempt and MSI1 is Musashi-1; names of the RNAs are library labels; protein concentration not given here; high values mean tight binding.
On to B1, for which the binding signal was 0.788 enrichment R.
For B2, the binding signal is 0.651 enrichment R.
For the molecule B3, the binding signal amounted to 0.83 enrichment R.
On to B4, for which the binding signal is 0.231 enrichment R.
B5 yielded a binding signal of 0.562 enrichment R.
On to B6, for which the binding signal stood at 0.85 enrichment R.
For the molecule B7, the binding signal amounted to 0.376 enrichment R.
As to B8, the binding signal was 0.563 enrichment R.
In turn, B9 yielded a binding signal of 0.423 enrichment R.
In the case of B10 it was 0.588 enrichment R; in that of B11, 0.378 enrichment R; in that of B12, 0.626 enrichment R.
In turn, B13 gave a binding signal of 0.475 enrichment R.
B14 gave a binding signal of 0.519 enrichment R.
With B15 the figure was 0.646 enrichment R; with B16, 1.13 enrichment R.
In the case of B17 it was 0.868 enrichment R; in that of B18, 0.962 enrichment R.
In the case of B19 it was 0.563 enrichment R.
B20 came in with a binding signal of 0.723 enrichment R.
B21 registered a binding signal of 0.349 enrichment R.
Regarding B22, the binding signal came out at 1.53 enrichment R.
